Test results reported in the supplement of paper PMC10369915.
This is one part of the list. Rule as the data show it: active = 3.2 or more and inactive = the rest. The signal is at background level for most entries.

Target: SHP2 C-SH2 domain E139D
Test: enrichment score (SH2-bound / input frequency) (ratio); bacterial display of known human phosphotyrosine sites (pTyr-Var adds point mutants) read by sequencing; higher = stronger binding; tyrosines were phosphorylated by kinases first
Details: peptide library: pTyr-Var
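Also: displayed peptides selected on beads carrying the immobilized SH2 domain, with library peptides lacking any tyrosine serving as negative controls.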

Binder | enrichment score
IGHGSYAKVLL [PRKCZ_Y263_R260H] | active: 3.24
QISQDYGVLLE [PRDX3_Y172_R170Q] | inactive: 0.786
FSAPNYCFRCG [PPP2CA_Y265_YF] | inactive: 1.67
GEFHVYRHLRR [PRKRIP1_Y82] | inactive: 0.222
GEFHVYRHLRW [PRKRIP1_Y82_R87W] | inactive: 1.14
CGPLLYGLVHQ [PRKCG_Y122_S119P] | inactive: 1.08
CGTPEYLAPEI [PRKACA_Y205] | inactive: 0.889
GSIQQYIYKQE [PRG4_Y1271] | inactive: 0.829
CGTPEYRAPEI [PRKACA_Y205_L206R] | inactive: 0.792
YENGEYIIRQG [PRKG1_Y247] | inactive: 2.65
EGGFAYVPLKD [PRIM2_Y208_D204G] | inactive: 0.559
QITQVYGFYDE [PPP2CA_Y127] | inactive: 1.04
SQPASYQRRFL [PPIG_Y320_L324F] | inactive: 0.207
QSHKVYVQHLL [POR_Y604] | inactive: 0.825
NVTGHYIPPFH [PPA2_Y59_S61P] | inactive: 1.11
LFMGDYVGRGF [PPP2CA_Y86_D88G_YF] | inactive: 1.2
LVQAEYWHDRI [PPT1_Y185_P189R] | inactive: 0.967
EDGFAYVPLKD [PRIM2_Y208] | inactive: 0.593
DEDFLYREELA [POR_Y575_YF] | inactive: 0.585

Target: SHP2 C-SH2 domain wild-type
Test: as above
Details: peptide library: pTyr-Var

Binder | enrichment score
IGHGSYAKVLL [PRKCZ_Y263_R260H] | active: 6.32
QISQDYGVLLE [PRDX3_Y172_R170Q] | inactive: 0.682
FSAPNYCFRCG [PPP2CA_Y265_YF] | inactive: 1.71
GEFHVYRHLRR [PRKRIP1_Y82] | inactive: 0.227
GEFHVYRHLRW [PRKRIP1_Y82_R87W] | inactive: 1.17
CGPLLYGLVHQ [PRKCG_Y122_S119P] | inactive: 1.28
CGTPEYLAPEI [PRKACA_Y205] | inactive: 1.08
GSIQQYIYKQE [PRG4_Y1271] | inactive: 0.905
CGTPEYRAPEI [PRKACA_Y205_L206R] | inactive: 0.841
YENGEYIIRQG [PRKG1_Y247] | inactive: 2.39
EGGFAYVPLKD [PRIM2_Y208_D204G] | inactive: 0.494
QITQVYGFYDE [PPP2CA_Y127] | inactive: 1.01
SQPASYQRRFL [PPIG_Y320_L324F] | inactive: 0.198
QSHKVYVQHLL [POR_Y604] | inactive: 0.703
NVTGHYIPPFH [PPA2_Y59_S61P] | inactive: 0.801
LFMGDYVGRGF [PPP2CA_Y86_D88G_YF] | inactive: 1.04
LVQAEYWHDRI [PPT1_Y185_P189R] | inactive: 1.14
EDGFAYVPLKD [PRIM2_Y208] | inactive: 0.625
DEDFLYREELA [POR_Y575_YF] | inactive: 0.913

Target: SHP2 N-SH2 domain L43F
Test: as above
Details: peptide library: pTyr-Var

Binder | enrichment score
IGHGSYAKVLL [PRKCZ_Y263_R260H] | inactive: 2.11
QISQDYGVLLE [PRDX3_Y172_R170Q] | inactive: 0.767
FSAPNYCFRCG [PPP2CA_Y265_YF] | inactive: 1.64
GEFHVYRHLRR [PRKRIP1_Y82] | inactive: 0.218
GEFHVYRHLRW [PRKRIP1_Y82_R87W] | inactive: 1.29
CGPLLYGLVHQ [PRKCG_Y122_S119P] | inactive: 1.08
CGTPEYLAPEI [PRKACA_Y205] | inactive: 0.83
GSIQQYIYKQE [PRG4_Y1271] | inactive: 0.839
CGTPEYRAPEI [PRKACA_Y205_L206R] | inactive: 0.642
YENGEYIIRQG [PRKG1_Y247] | inactive: 2.54
EGGFAYVPLKD [PRIM2_Y208_D204G] | inactive: 0.716
QITQVYGFYDE [PPP2CA_Y127] | inactive: 1.04
SQPASYQRRFL [PPIG_Y320_L324F] | inactive: 0.233
QSHKVYVQHLL [POR_Y604] | inactive: 1.02
NVTGHYIPPFH [PPA2_Y59_S61P] | inactive: 0.959
LFMGDYVGRGF [PPP2CA_Y86_D88G_YF] | inactive: 1.13
LVQAEYWHDRI [PPT1_Y185_P189R] | inactive: 1.08
EDGFAYVPLKD [PRIM2_Y208] | inactive: 0.497
DEDFLYREELA [POR_Y575_YF] | inactive: 0.644

Target: SHP2 N-SH2 domain T42A
Test: as above
Details: peptide library: pTyr-Var

Binder | enrichment score
IGHGSYAKVLL [PRKCZ_Y263_R260H] | active: 5.6
QISQDYGVLLE [PRDX3_Y172_R170Q] | inactive: 0.719
FSAPNYCFRCG [PPP2CA_Y265_YF] | inactive: 1.66
GEFHVYRHLRR [PRKRIP1_Y82] | inactive: 0.317
GEFHVYRHLRW [PRKRIP1_Y82_R87W] | inactive: 1.15
CGPLLYGLVHQ [PRKCG_Y122_S119P] | inactive: 1.04
CGTPEYLAPEI [PRKACA_Y205] | inactive: 0.684
GSIQQYIYKQE [PRG4_Y1271] | inactive: 0.566
CGTPEYRAPEI [PRKACA_Y205_L206R] | inactive: 0.591
YENGEYIIRQG [PRKG1_Y247] | active: 3.22
EGGFAYVPLKD [PRIM2_Y208_D204G] | inactive: 0.513
QITQVYGFYDE [PPP2CA_Y127] | inactive: 0.812
SQPASYQRRFL [PPIG_Y320_L324F] | inactive: 0.226
QSHKVYVQHLL [POR_Y604] | inactive: 0.95
NVTGHYIPPFH [PPA2_Y59_S61P] | inactive: 0.947
LFMGDYVGRGF [PPP2CA_Y86_D88G_YF] | inactive: 1.09
LVQAEYWHDRI [PPT1_Y185_P189R] | inactive: 1.04
EDGFAYVPLKD [PRIM2_Y208] | inactive: 0.478
DEDFLYREELA [POR_Y575_YF] | inactive: 0.548

Target: SHP2 N-SH2 domain T52S
Test: as above
Details: peptide library: pTyr-Var

Binder | enrichment score
IGHGSYAKVLL [PRKCZ_Y263_R260H] | inactive: 2.89
QISQDYGVLLE [PRDX3_Y172_R170Q] | inactive: 0.962
FSAPNYCFRCG [PPP2CA_Y265_YF] | inactive: 1.41
GEFHVYRHLRR [PRKRIP1_Y82] | inactive: 0.235
GEFHVYRHLRW [PRKRIP1_Y82_R87W] | inactive: 1.3
CGPLLYGLVHQ [PRKCG_Y122_S119P] | inactive: 1.02
CGTPEYLAPEI [PRKACA_Y205] | inactive: 0.628
GSIQQYIYKQE [PRG4_Y1271] | inactive: 0.821
CGTPEYRAPEI [PRKACA_Y205_L206R] | inactive: 0.722
YENGEYIIRQG [PRKG1_Y247] | inactive: 2.82
EGGFAYVPLKD [PRIM2_Y208_D204G] | inactive: 0.392
QITQVYGFYDE [PPP2CA_Y127] | inactive: 0.759
SQPASYQRRFL [PPIG_Y320_L324F] | inactive: 0.236
QSHKVYVQHLL [POR_Y604] | inactive: 0.744
NVTGHYIPPFH [PPA2_Y59_S61P] | inactive: 0.863
LFMGDYVGRGF [PPP2CA_Y86_D88G_YF] | inactive: 1.1
LVQAEYWHDRI [PPT1_Y185_P189R] | inactive: 0.783
EDGFAYVPLKD [PRIM2_Y208] | inactive: 0.474
DEDFLYREELA [POR_Y575_YF] | inactive: 0.632

Target: SHP2 N-SH2 domain wild-type
Test: as above
Details: peptide library: pTyr-Var

Binder | enrichment score
IGHGSYAKVLL [PRKCZ_Y263_R260H] | inactive: 1.05
QISQDYGVLLE [PRDX3_Y172_R170Q] | inactive: 0.843
FSAPNYCFRCG [PPP2CA_Y265_YF] | inactive: 1.55
GEFHVYRHLRR [PRKRIP1_Y82] | inactive: 0.175
GEFHVYRHLRW [PRKRIP1_Y82_R87W] | inactive: 1.12
CGPLLYGLVHQ [PRKCG_Y122_S119P] | inactive: 1.65
CGTPEYLAPEI [PRKACA_Y205] | inactive: 1.31
GSIQQYIYKQE [PRG4_Y1271] | inactive: 0.439
CGTPEYRAPEI [PRKACA_Y205_L206R] | inactive: 0.895
YENGEYIIRQG [PRKG1_Y247] | inactive: 2.12
EGGFAYVPLKD [PRIM2_Y208_D204G] | inactive: 0.53
QITQVYGFYDE [PPP2CA_Y127] | inactive: 1.31
SQPASYQRRFL [PPIG_Y320_L324F] | inactive: 0.18
QSHKVYVQHLL [POR_Y604] | inactive: 0.933
NVTGHYIPPFH [PPA2_Y59_S61P] | inactive: 1.25
LFMGDYVGRGF [PPP2CA_Y86_D88G_YF] | inactive: 1.09
LVQAEYWHDRI [PPT1_Y185_P189R] | inactive: 0.963
EDGFAYVPLKD [PRIM2_Y208] | inactive: 0.467
DEDFLYREELA [POR_Y575_YF] | inactive: 0.635
